The source of these data is paper PMC6919601, “Identification of Plasmodium dipeptidyl aminopeptidase allosteric inhibitors by high throughput screening” (PLoS ONE, 2019).

The whole screen tested about 110,000 compounds, of which about 230 (0.21%) showed an effect of 50% or more. The list shows a part of the results. Where a SMILES comes first, the peptide text is derived from it.
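Note: 30 min substrate incubation versus DMSO and 10 µM JCP410 controls.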

In the experiment the target is DPAP1 (Plasmodium falciparum, UniProt Q8IIJ9). As to the kind of experiment: primary screen, percent inhibition; read by cleavage of a fluorogenic dipeptide substrate; higher = more effect of the substance. Further details: species or system P. falciparum D10 trophozoite lysates; single well.
Chain of DPAP1 (Q8IIJ9 whole entry, looked up): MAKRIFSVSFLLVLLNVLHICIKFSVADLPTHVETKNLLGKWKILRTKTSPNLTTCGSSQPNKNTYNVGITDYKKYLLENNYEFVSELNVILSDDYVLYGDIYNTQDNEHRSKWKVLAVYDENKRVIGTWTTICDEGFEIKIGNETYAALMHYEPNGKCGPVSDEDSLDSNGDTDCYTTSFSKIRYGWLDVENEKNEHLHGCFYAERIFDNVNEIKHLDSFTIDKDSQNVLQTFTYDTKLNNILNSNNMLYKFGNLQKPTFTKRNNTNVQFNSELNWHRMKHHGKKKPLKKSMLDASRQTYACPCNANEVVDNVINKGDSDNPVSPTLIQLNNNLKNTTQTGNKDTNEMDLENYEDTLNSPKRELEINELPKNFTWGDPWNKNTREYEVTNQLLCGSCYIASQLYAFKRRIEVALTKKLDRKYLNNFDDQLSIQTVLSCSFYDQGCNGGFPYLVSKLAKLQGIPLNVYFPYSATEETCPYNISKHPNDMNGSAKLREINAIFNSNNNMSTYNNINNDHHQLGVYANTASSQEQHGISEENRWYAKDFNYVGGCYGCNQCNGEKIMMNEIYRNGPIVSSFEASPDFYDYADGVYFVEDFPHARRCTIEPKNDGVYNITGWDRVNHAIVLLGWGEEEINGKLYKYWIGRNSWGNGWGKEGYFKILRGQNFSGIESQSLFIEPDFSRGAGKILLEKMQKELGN
`CCCCc1ccc(NC(=O)C(C)NS(=O)(=O)c2ccc(C)cc2)cc1` (stereo not shown): the “% Inhibition @ 10 uM” value is reported as -5.01%.
With `CC(C)(C)c1ccc(S(=O)(=O)NCc2ccc(C(=O)O)cc2)cc1`, the “% Inhibition @ 10 uM” value is listed as -1.38%.
Next, `CCCn1c(=O)c(C(=O)Nc2cc(Cl)ccc2OC)c(O)c2ccccc21`: -7.5%; `COc1ccc(Cc2nn[nH]n2)cc1OC`: 5.61%.
Next, `O=C(NCCN1CCOCC1)c1cnn2c(C(F)(F)F)cc(-c3ccc(Br)cc3)nc12`: -4.21%; `O=C(NCCc1csc2nc(-c3ccccc3)nn12)c1ccc2c(c1)OCO2`: 3.72%.
Regarding `CC1CCCCN1C1CC(=O)N(c2ccc(Br)cc2)C1=O` (stereo not shown), the “% Inhibition @ 10 uM” value is listed as -5.46%.
For `Cc1n[nH]c(C)c1Nc1cnn(C23CC4CC(CC(C4)C2)C3)c(=O)c1Cl`, the “% Inhibition @ 10 uM” value is given as -1.66%.
For `Cc1ccn2cc(-c3cccc(NS(=O)(=O)c4ccccc4)c3)nc2c1`, the “% Inhibition @ 10 uM” value is -4.15%.
Next, `CNC(=O)CNC(=O)CNC(=O)c1ccccc1` (HELM PEPTIDE1{[O=C(c1ccccc1)[*:2]].G.G.[CN[*:1]]}$$$$V2.0): -3.48%.
For `CC1CCN(S(=O)(=O)N2CCCC(C(=O)NCCN3CCCCC3)C2)CC1` (stereo not shown), the “% Inhibition @ 10 uM” value is -1.81%.
Consider `COC(=O)c1conc1-c1ccc(Cl)cc1Cl`, for which the “% Inhibition @ 10 uM” value was -2.71%.
Regarding `O=C(Nc1ccc(NC(=O)c2cc(S(=O)(=O)N3CCCCC3)ccc2Cl)cc1)c1ccccc1`, the “% Inhibition @ 10 uM” value is listed as 7.35%.
Next, `CN1C2CCC1(C(=O)c1ccccc1)C(C(=O)O)C(O)C2` (stereo not shown): 3.72%.
The same measure for `COc1ccc(Cn2c(=O)c3ccccc3n3c(-c4ccc(F)c(F)c4)nnc23)cc1`: 0.00665%; for `COc1cc(N)c(-c2ccc3cc(OC)c(OC)cc3n2)cc1OC`: -0.0555%; for `CC(C)c1ccc(/C=C2/NC(=O)N(Cc3ccc(F)cc3)C2=O)cc1`: -3.41%.
The same measure for `Oc1oc(-c2ccc(Br)cc2)nc1/C=N/c1cccnc1`: 6.11%; for `Cc1ccc(-c2noc(CN(C(=O)COc3cc(C)ccc3C)C(C)C)n2)cc1`: -3.37%.
As for `Cc1ccc2c(c1)Cc1c(O)nc(-c3ccccc3O)nc1O2`, the “% Inhibition @ 10 uM” value came to 6.98%.
Next, `COCCCNC(=O)c1cnn2c(C)c(Cc3ccc(C)cc3)c(C)nc12`: -2.14%; `C=CCOC(=O)C1=C(C)N=C2CC(C)(C)CC(O)=C2C1c1cc2c(cc1Cl)OCO2` (stereo not shown): 4.54%; `Cc1nc(NC(=O)c2ccccc2O)sc1C(C)C`: 5.98%.
`CCC(C)(C)C1CCc2c(sc(NC(C)=O)c2C#N)C1` (stereo not shown): the “% Inhibition @ 10 uM” value is given as 8.44%.
`COCCN1C(=O)c2ccccc2C(C(=O)N2CCN(c3ccccn3)CC2)C1c1ccc(F)cc1` (stereo not shown): the “% Inhibition @ 10 uM” value is -7.43%.
Take `N#CC1=C(N)Oc2[nH]nc(-c3ccncc3)c2C12C(=O)Nc1ccccc12` (stereo not shown): the “% Inhibition @ 10 uM” value is listed as -1.06%.
Next, `OC(COCc1ccccc1)Cn1cnc2ccccc21` (stereo not shown): 5.04%.
Take `O=C(O)c1ccc(NC(=O)c2ccc(Br)cc2)cc1`: the “% Inhibition @ 10 uM” value was -1.98%.
Next, `COc1ccc(CN2CC(C(=O)NCc3ccccn3)CC2=O)cc1` (stereo not shown): -3.58%; `Clc1ccc2c(Cl)c3c(nc2c1)CCCC3`: 0.231%.
Next, `O=[N+]([O-])c1cccc(-c2nnco2)c1`: -1.82%; `O=C(O)c1ccc(N2C(=O)CC(N3CCN(c4ccc(Cl)cc4)CC3)C2=O)cc1` (stereo not shown): -1.38%.
As to `COC(=O)c1ccc(OCC2c3cc(OC)c(OC)cc3CCN2C(=O)c2ccco2)cc1` (stereo not shown), the “% Inhibition @ 10 uM” value was -6.12%.
The same measure for `COc1ccccc1OC(C)C(=O)N(Cc1ccco1)C1CCS(=O)(=O)C1` (stereo not shown): -2.85%; for `Nc1nc(SCC(=O)N2CCCCC2)nc2sc3c(c12)CCCC3`: 11.9%; for `N#Cc1ccc(Cn2c(=O)n(CCC(=O)NCCc3ccc(Cl)cc3)c(=O)c3sccc32)cc1`: 0.0221%.
The same measure for `Cc1cc(C)c2c(N)c(C(N)=O)sc2n1`: -1.98%; for `CCc1c(N(C)C)nc2n(c1=O)CCS2`: -4.75%.
Next, `O=S(=O)(NCc1ccc2c(c1)OCO2)c1cc(Br)c(Br)s1`: 4.35%.
`CCc1ccc(OCC(O)Cn2c(SC(C)C)nc3c2c(=O)[nH]c(=O)n3C)cc1` (stereo not shown): the “% Inhibition @ 10 uM” value is listed as -0.366%.
Next, `Cc1ccc(/C=C2\Sc3ccccc3C2=O)c(O)c1`: 22.9%.
The same measure for `COCCCn1c(=O)c2sccc2n2c(CCCC(=O)N(C)Cc3ccco3)nnc12`: 0.351%; for `CC1CCCC(NC(=O)c2ccc(N3CCOCC3)cc2)(C(=O)NCC#N)C1` (stereo not shown): 3.1%.
The same measure for `O=C(Nc1nnc(Cc2ccc(F)cc2)s1)C1CCCCC1`: -0.142%; for `COc1ccc(-c2csc3ncn(Cc4cccc(C)c4)c(=O)c23)cc1OC`: -1.6%.
For the molecule `O=C(Nc1ccccn1)c1ccc(F)cc1`, the “% Inhibition @ 10 uM” value is on record as 0.275%.
For `C=Cc1ccc(Cn2c(C(=O)O)c(CNCc3ccc(OC)cc3)c3ccccc32)cc1`, the “% Inhibition @ 10 uM” value is listed as -5.05%.
Next, `O=C(Nc1ccc(I)cc1)C(c1ccccc1)c1ccccc1`: -2.03%; `Cc1ccccc1OCC(=O)Nc1ccccn1`: -0.872%.
Next, `CCOC(=O)c1ccc(S(=O)(=O)NC2CCCCCCC2)n1C`: 3.07%; `COc1ccc(NS(=O)(=O)c2ccc(NC(=O)c3ccccc3)cc2)nn1`: 4.42%; `Clc1cncc(N2CCN(c3ccccc3)CC2)n1`: 6.79%.
Next, `COc1ccc(-c2csc(/C(C#N)=C/c3ccccc3OC)n2)cc1`: -4.21%; `CC(=O)Nc1ccc(NC(=O)c2ccncc2)cc1`: 8.68%; `Cc1cccc(C)c1NC(=O)C(C)(C)N(C)C(=O)CN1C(=O)c2ccccc2C1=O`: -5.51%.
As to `Cc1ccc(C)c(CN(C)CC(O)c2ccccc2)c1` (stereo not shown), the “% Inhibition @ 10 uM” value was -3.5%.
Take `CCc1c(CN2CCN(Cc3ccccc3)CC2)csc1C`: the “% Inhibition @ 10 uM” value came to 2.03%.
As for `COc1ccc(CNC(=O)c2cnn3c(C)c(Cc4cc(C)ccc4C)c(C)nc23)cc1`, the “% Inhibition @ 10 uM” value was -0.519%.
For the molecule `COc1cccc(C2CC(C(F)(F)F)n3ncc(C(=O)NCCCn4ccnc4)c3N2)c1` (stereo not shown), the “% Inhibition @ 10 uM” value is -1.72%.
Next, `Cc1c(C=C2C(=O)NC(=O)NC2=O)cc(-c2ccccc2)n1-c1ccccc1`: 6.94%; `Cc1ccc(NC(=O)CNc2ccc(OC(C)C)cc2)c(C)c1`: 3.97%.
As for `O=c1oc2cc(O)ccc2cc1-c1nc2ccccc2[nH]1`, the “% Inhibition @ 10 uM” value is 4.61%.
The same measure for `COCCN(Cc1ccco1)C(=O)c1c(C)oc2ncn(C)c(=O)c12`: -0.171%; for `COc1cc(S(=O)(=O)N2CC=C(c3ccc(F)cc3)CC2)ccc1-n1cnnn1`: 0.635%; for `CN(Cc1ccccc1)S(=O)(=O)c1ccc(N2C(=O)c3ccccc3C2=O)cc1`: 1.65%.
Turning to `CC(C)(C)NC(=O)Cc1coc2ccc3ccccc3c12`, the “% Inhibition @ 10 uM” value was determined as 2.95%.
Next, `CCOc1ccc(NC(=O)CC2SC(Nc3ccccc3C)=NC2=O)cc1` (stereo not shown): -10.6%; `N#Cc1ccccc1NC(=O)COc1ccc2ccccc2c1Br`: -1.06%; `Clc1ccc(Cc2noc(C34CC5CC(CC(C5)C3)C4)n2)cc1`: 5.75%.
The same measure for `COc1ccc(CNC(=O)C2CCC(C/N=c3/c(N4CCC(C)CC4)c(O)c3=O)CC2)cc1` (stereo not shown): 1.02%.
As to `COc1cccc(C2C3=C(O)CC(C)(C)CC3=NC(C)=C2C(=O)Nc2nc3ccccc3s2)c1` (stereo not shown), the “% Inhibition @ 10 uM” value is 2.7%.
Next, `CSc1nc2c(c(=O)[nH]c(=O)n2C)n1Cc1ccccc1Cl`: -4.43%; `COc1cc(OC)c(OC)cc1CN(C)C1CCN(C)CC1`: -2.81%.
As to `O=C(c1ccc(F)cc1)c1coc2ccc(Cl)cc2c1=O`, the “% Inhibition @ 10 uM” value was -3.26%.
With `COc1ccc(-c2nnc(SCc3csc(N)n3)o2)cc1`, the “% Inhibition @ 10 uM” value is listed as 0.776%.
Next, `Nc1c(-c2nc(-c3cccnc3)no2)nnn1-c1ccc(Cl)cc1`: 3.98%; `Cc1[nH]c2ccccc2c1/C=N/CCc1ccncc1`: -7.3%.
The same measure for `O=c1[nH]c2sc3c(c2c(=O)n1Cc1ccccc1)CCCC3`: -1.29%.
With `COc1ccc2c(c1)CC/C(=C\c1sccc1C)C2=O`, the “% Inhibition @ 10 uM” value is given as 6.11%.
Next, `O=C(Cc1ccc(Br)cc1)N1CCN(C(=O)c2ccco2)CC1`: -3.19%; `CCn1cnc2cc(NC(=O)c3cccs3)ccc21`: -3.45%.
Next, `Cc1ccc(C(=O)O)cc1-n1cccc1`: 6.73%.
Consider `O=C(COc1ccc(S(=O)(=O)NC2CCCC2)cc1)Nc1ccc(C(F)(F)F)cc1`, for which the “% Inhibition @ 10 uM” value came out at 5.66%.
The same measure for `COc1ccc(OC)c(S(=O)(=O)NCc2cn3ccccc3n2)c1`: -5.37%; for `CN1CCC(=C2c3ccccc3CC(O)c3sccc32)CC1` (stereo not shown): -11.2%.
Next, `Cc1cccc(NC(=O)CCCC(=O)O)c1C`: -4.35%.
For the molecule `CC(C(=O)N1CCCc2c1c(=O)oc1ccc(O)cc21)N1CCc2ccccc2C1` (stereo not shown), the “% Inhibition @ 10 uM” value is 5.32%.
With `Cc1ccc2nc3c(O)n(Cc4ccc(Cl)cc4)cnc-3c2c1`, the “% Inhibition @ 10 uM” value is -0.0235%.
`Cc1cc(NC(=O)c2ccccc2F)no1`: the “% Inhibition @ 10 uM” value was -1.1%.
Next, `Cc1oc(-c2ccsc2)[n+]([O-])c1C`: -3.78%.
The same measure for `CC(=O)Nc1ccc(CN2CCN(c3ccccc3)CC2)cc1`: -4.61%; for `Cc1ccc(-c2noc(CNc3ccccc3)n2)cc1`: 0.161%.
Turning to `O=C1C2C(c3ccccc3)OC3(C(=O)c4ccccc4C3=O)C2C(=O)N1C1CCCCC1` (stereo not shown), the “% Inhibition @ 10 uM” value was determined as 0.35%.
The same measure for `CC(C)c1ccccc1OCC(=O)Nc1ccc(S(=O)(=O)NC2CCCCC2)cc1`: -1.35%.
Next, `Cc1c(-c2nsc(NC(=O)c3cccc(F)c3)n2)nnn1-c1cc(F)ccc1F`: -1.02%; `CCOC(=O)c1c(S(=O)(=O)N(Cc2ccccc2)C(C)C)c(C)n(C)c1C`: 4.85%; `O=C(COc1ccc(Br)cc1)Nc1ccc(F)cc1F`: 2.13%.
Next, `CCn1c2ccccc2c2cc(CNc3ccc(C)c(C)c3)ccc21`: 1.84%.
With `O=C(NCc1ccco1)c1cc2ccccc2c(=O)o1`, the “% Inhibition @ 10 uM” value was -8.71%.
Next, `COc1ccc(Cl)cc1S(=O)(=O)N1CCc2ccccc2C1CN1C(=O)c2ccccc2C1=O` (stereo not shown): 1.88%.
